# In PubChem BioAssay AID463173 (ICCB-Longwood Screening Facility, Harvard Medical School, 2010):
# The campaign covered roughly 52,000 compounds. About 4,300 (8.3%) were called active. No stated cut-off is given here; in the data, active means survival mostly below about 52% (no sharp cut-off); inactive means mostly above about 56%. This is one part of the list.
# System: DeltatarO mutant
# Assay: S. aureus survival, RN4220 and DeltatarO strains – OD600, teichoic acid synthesis inhibitors, primary screen (AID 463173)
# Settings: S. aureus RN4220 wild type/DeltatarO growth, OD600, 18 h, stronger effect = lower value, screened at 18.75 µg/mL (by protocol)
row,Compound,survival
1,CCCCOC(=O)CSc1nnc(-c2ccc(C)cc2)o1,active: 12%
2,CC(C)Cn1c(=O)c2ccccc2n2c(CCC(=O)N3CCN(c4ccccc4)CC3)nnc12,inactive: 104%
3,COc1ccc(C(=O)Nc2nnc(C)s2)cc1,inactive: 77%
4,Cc1ccc(NC(=O)CCC(=O)N2Cc3ccccc3Oc3ncccc32)cc1F,inactive: 70%
5,O=C(NCc1ccc(F)cc1)c1ccc2nc(N3CCCCC3)sc2c1,inactive: 88%
6,CCOc1ccc(NC(=O)c2ccc3c(c2)CCN3S(=O)(=O)c2ccc(Cl)cc2)cc1,inactive: 78%
7,Cc1cccc(Cn2c(=O)n(CCC(=O)NCCc3ccc(Cl)cc3)c(=O)c3sccc32)c1,inactive: 73%
8,CNC(=S)N(Cc1cc2cc(OC)ccc2[nH]c1=O)CC1CCCO1 (stereo unspecified),inactive: 105%
9,O=C(NCC(c1ccc2c(c1)OCO2)N1CCOCC1)C(=O)Nc1cccc(Cl)c1 (stereo unspecified),inactive: 98%
10,Cc1cc(-c2ccc(C)c(S(=O)(=O)NCC3CCN(Cc4ccc(F)cc4)CC3)c2)on1,inactive: 77%
11,Fc1cccc(Cl)c1Cn1c(-c2cccs2)nc2ccccc21,active: 21%
12,O=C(NC1CCCCC1)NC1CCN(Cc2nnnn2Cc2ccco2)CC1,inactive: 85%
13,COc1ccc(OC)c(CNC(=O)c2nn(C)c3c2CSc2ccccc2-3)c1,inactive: 92%
14,CCOc1ccc(CNC(=O)c2cc(=O)[nH]c3ccc(S(=O)(=O)N4CCCC4)cc23)cc1,inactive: 94%
15,COc1ccc(C(=O)Nc2nc3c(s2)CCCC3)cc1Cl,inactive: 53%
16,COc1ccc(Cl)cc1CNCCSc1nnnn1C,inactive: 70%
17,Cn1c(=O)c2c(-c3ccccc3)n3c(c2n(C)c1=O)C(c1ccco1)Nc1ccccc1-3 (stereo unspecified),inactive: 77%
18,CCOc1cccc(NC(=O)CSc2ncc(-c3ccccc3)[nH]2)c1,inactive: 49%
19,CCCn1cc(S(=O)(=O)c2ccc(CC)cc2)c(=O)c2cc(F)c(N(CC)CC)cc21,inactive: 81%
20,Cc1cccc(N2CCN(C(=O)c3ccc4c(c3)N(Cc3cccc(Cl)c3)C(=O)c3ccccc3S4=O)CC2C)c1 (stereo unspecified),inactive: 83%
21,CCOc1cccc2sc(N3CCN(C(=O)C4CC4)CC3)nc12,inactive: 54%
22,Cc1cc(C)cc(NC(=O)CCCn2c3ccccc3c(=O)c3ccccc32)c1,active: 42%
23,c1nnnn1C12CC3CC(CC(C3)C1)C2,inactive: 119%
24,CC(=O)c1ccc(N2CCN(C(=O)CCCCn3c(=O)[nH]c4ccccc4c3=O)CC2)cc1,inactive: 107%
25,NC(=O)C1(N2CCCCC2)CCN(C(=O)Nc2ccc(F)cc2)CC1,inactive: 98%
26,CCc1ccccc1NC(=O)CN1C(=O)c2ccccc2Sc2ncccc21,inactive: 96%
